Consider 14 compounds from patent US11000038B2, “Pyridone compounds and agricultural and horticultural fungicides containing the same as active ingredients” (priority 2017, dated 2021).

Assay [1] deals with grape downy mildew fungus (Plasmopara viticola). As to the kind of experiment: Test Example G: grape downy mildew, spray treatment of grape plants. To be noted: grape downy mildew, 250 ppm spray, 7 to 10 days after inoculation.
Assay [2] relates to gray mold fungi (Botrytis cinerea). Kind of assay: Test Example B: tomato gray mold, spray treatment of tomato plants. To be noted: tomato gray mold, spray treatment.
Assay [3] relates to cabbage Alternaria sooty spot fungi (Alternaia brassicicola). As to the kind of experiment: Test Example C: cabbage Alternaria sooty spot, spray treatment of cabbage plants. It is filed as in vivo. Conditions: cabbage Alternaria sooty spot, spray treatment. From the text:
[Test Example C] Cabbage Alternaria Sooty Spot
Test plants (cabbage variety: Shikidori) were cultivated until the cotyledons extended after the sowing of seeds.
<Control Value> Control value=100{1−(n/3)}

Assay [4] deals with wheat brown rust fungi (Puccinia recondita). Kind of assay: Test Example E: wheat brown rust, spray treatment of wheat plants. It is filed as in vivo. To be noted: wheat brown rust, spray treatment.
Assay [5] concerns barley powdery mildew fungi (Blumeria graminis f. sp. hordei). Kind of assay: Test Example D: barley powdery mildew, spray treatment of barley plants. Conditions: barley powdery mildew, spray treatment.

For the compound `Cc1cccc(Cl)c1-n1cc(Cl)c(=O)c(Br)c1-c1ccc(F)cc1` [Compound 381], the “Test G control value” in assay [1] is recorded as “L (L shows the control value of 50% or less)”. Also, the “Test B control value” in assay [2] is “L (L shows the control value of 50% or less)”. The “Test C control value” in assay [3] was “L (L shows the control value of 50% or less)”. In addition, the “Test E control value” in assay [4] is “H (H shows the control value of more than 50%)”. Moreover, the “Test D control value” in assay [5] is “L (L shows the control value of 50% or less)”.

In the case of `Cc1cccc(Cl)c1-n1cc(Cl)c(=O)c(Cl)c1-c1ccc(F)cc1` [Compound 382], in assay [1], the “Test G control value” was “L (L shows the control value of 50% or less)”. For the same compound, the “Test B control value” in assay [2] is given as “H (H shows the control value of more than 50%)”. The “Test C control value” in assay [3] is “L (L shows the control value of 50% or less)”. Also, in assay [4], the “Test E control value” is “H (H shows the control value of more than 50%)”. Also, the “Test D control value” in assay [5] is given as “L (L shows the control value of 50% or less)”.

On to `COc1cc(-n2cc(Br)c(=O)c(Br)c2-c2c(F)cccc2F)c(C)cc1Br` [Compound 384], for which the “Test G control value” in assay [1] is “L (L shows the control value of 50% or less)”. For the same compound, in assay [2], the “Test B control value” is “L (L shows the control value of 50% or less)”. Also, the “Test C control value” in assay [3] is given as “L (L shows the control value of 50% or less)”. Moreover, in assay [4], the “Test E control value” is recorded as “H (H shows the control value of more than 50%)”. Moreover, the “Test D control value” in assay [5] was “L (L shows the control value of 50% or less)”.

Turning to `COc1ccc(C)c(-n2cc(Br)c(=O)c(Br)c2-c2c(F)cccc2F)c1` [Compound 385], the “Test G control value” in assay [1] is on record as “L (L shows the control value of 50% or less)”. Besides, the “Test B control value” in assay [2] is given as “H (H shows the control value of more than 50%)”. Also, the “Test C control value” in assay [3] is listed as “H (H shows the control value of more than 50%)”. In addition, the “Test E control value” in assay [4] is “H (H shows the control value of more than 50%)”. Moreover, the “Test D control value” in assay [5] is “L (L shows the control value of 50% or less)”.

On to `Cc1c(-c2ccccc2)n(-c2ccc(Br)cc2Cl)cc(Br)c1=O` [Compound 386], for which, in assay [1], the “Test G control value” was “H (H shows the control value of more than 50%)”. The “Test B control value” in assay [2] was “H (H shows the control value of more than 50%)”. Further, in assay [3], the “Test C control value” is on record as “H (H shows the control value of more than 50%)”. Also, in assay [4], the “Test E control value” is “H (H shows the control value of more than 50%)”. Moreover, the “Test D control value” in assay [5] is given as “L (L shows the control value of 50% or less)”.

In the case of `Cc1c(-c2ccccc2)n(-c2ccccc2Cl)cc(Br)c1=O` [Compound 387], the “Test G control value” in assay [1] was “H (H shows the control value of more than 50%)”. Besides, in assay [2], the “Test B control value” was “H (H shows the control value of more than 50%)”. Moreover, the “Test C control value” in assay [3] is recorded as “H (H shows the control value of more than 50%)”. Moreover, the “Test E control value” in assay [4] is recorded as “H (H shows the control value of more than 50%)”. Moreover, the “Test D control value” in assay [5] was “L (L shows the control value of 50% or less)”.

With `O=c1c(Br)cn(-c2ccccc2Cl)c(-c2ccccc2)c1Cl` [Compound 388], the “Test G control value” in assay [1] is “L (L shows the control value of 50% or less)”. In addition, the “Test B control value” in assay [2] is “H (H shows the control value of more than 50%)”. Moreover, the “Test C control value” in assay [3] is listed as “L (L shows the control value of 50% or less)”. The “Test E control value” in assay [4] is “H (H shows the control value of more than 50%)”. Besides, the “Test D control value” in assay [5] is on record as “L (L shows the control value of 50% or less)”.

As for `Cc1ccc(C)c(-n2cc(C)c(=O)c(C)c2-c2c(F)cc(F)cc2F)c1` [Compound 390], the “Test G control value” in assay [1] was “L (L shows the control value of 50% or less)”. The “Test B control value” in assay [2] is “H (H shows the control value of more than 50%)”. The “Test C control value” in assay [3] was “H (H shows the control value of more than 50%)”. The “Test E control value” in assay [4] is listed as “H (H shows the control value of more than 50%)”. The “Test D control value” in assay [5] is reported as “H (H shows the control value of more than 50%)”.

On to `COc1cc(-n2cc(Br)c(=O)c(Cl)c2-c2c(F)cccc2F)c(C)cc1Br` [Compound 391], for which the “Test G control value” in assay [1] was “H (H shows the control value of more than 50%)”. In assay [2], the “Test B control value” is listed as “H (H shows the control value of more than 50%)”. For the same compound, the “Test C control value” in assay [3] is on record as “H (H shows the control value of more than 50%)”. Besides, the “Test E control value” in assay [4] is “H (H shows the control value of more than 50%)”. Also, the “Test D control value” in assay [5] is given as “L (L shows the control value of 50% or less)”.

Consider `COc1ccc(C)c(-n2cc(Br)c(=O)c(Cl)c2-c2c(F)cccc2F)c1` [Compound 392], for which the “Test G control value” in assay [1] was “L (L shows the control value of 50% or less)”. Further, the “Test B control value” in assay [2] is given as “H (H shows the control value of more than 50%)”. In assay [3], the “Test C control value” was “H (H shows the control value of more than 50%)”. Besides, in assay [4], the “Test E control value” is given as “H (H shows the control value of more than 50%)”. In assay [5], the “Test D control value” was “L (L shows the control value of 50% or less)”.

For `CC(C)c1ccccc1-n1cc(Br)c(=O)c(Cl)c1-c1c(F)cc(F)cc1F` [Compound 393], the “Test G control value” in assay [1] is recorded as “H (H shows the control value of more than 50%)”. Moreover, in assay [2], the “Test B control value” is “H (H shows the control value of more than 50%)”. In addition, in assay [3], the “Test C control value” is on record as “H (H shows the control value of more than 50%)”. Further, in assay [4], the “Test E control value” is recorded as “H (H shows the control value of more than 50%)”. Also, the “Test D control value” in assay [5] is on record as “H (H shows the control value of more than 50%)”.

With `CC(C)c1ccccc1-n1cc(Br)c(=O)c(Br)c1-c1c(F)cc(F)cc1F` [Compound 394], in assay [1], the “Test G control value” is “H (H shows the control value of more than 50%)”. For the same compound, in assay [2], the “Test B control value” is reported as “H (H shows the control value of more than 50%)”. Also, in assay [3], the “Test C control value” was “H (H shows the control value of more than 50%)”. Further, the “Test E control value” in assay [4] is listed as “H (H shows the control value of more than 50%)”. In assay [5], the “Test D control value” is “L (L shows the control value of 50% or less)”.

Turning to `CC(C)c1ccccc1-n1cc(Cl)c(=O)c(Cl)c1-c1c(F)cc(F)cc1F` [Compound 395], in assay [1], the “Test G control value” is recorded as “H (H shows the control value of more than 50%)”. For the same compound, the “Test B control value” in assay [2] is recorded as “H (H shows the control value of more than 50%)”. For the same compound, the “Test C control value” in assay [3] was “H (H shows the control value of more than 50%)”. For the same compound, the “Test E control value” in assay [4] is given as “H (H shows the control value of more than 50%)”. Besides, in assay [5], the “Test D control value” is “H (H shows the control value of more than 50%)”.

Take `CC(C)c1ccccc1-n1cc(Cl)c(=O)c(Br)c1-c1c(F)cc(F)cc1F` [Compound 396]: the “Test G control value” in assay [1] was “L (L shows the control value of 50% or less)”. In addition, the “Test B control value” in assay [2] is recorded as “H (H shows the control value of more than 50%)”. In addition, the “Test C control value” in assay [3] is on record as “H (H shows the control value of more than 50%)”. In addition, in assay [4], the “Test E control value” is reported as “H (H shows the control value of more than 50%)”. Also, the “Test D control value” in assay [5] was “L (L shows the control value of 50% or less)”.
